Data as given in PubChem BioAssay AID686978 (National Center for Advancing Translational Sciences (NCATS), 2013).
Several values for one entry are separate records, joined by “and”; a condition that tells them apart may be missing. Equal values may be shown once. About 64,000 (15%) of roughly 420,000 compounds were called active. The shares of active, inactive and inconclusive entries below differ from those in the screen. Calls come from the whole dose curve; as a rule, active = well fitted inhibition curve with a large enough effect; inconclusive = small, poorly fitted or top-dose-only effect; inactive = flat fitted curve, though single readings scatter. A potency beside an inconclusive call is a rough fit, not a confirmed value.

Assay: qHTS for Inhibitors of human tyrosyl-DNA phosphodiesterase 1 (TDP1): qHTS in cells in absence of CPT; note: nearly all actives have a fitted effect of over 55% in size
Conditions: DT40 Tdp1-/- hTDP1 cells, no CPT, ATP luminescence, 48 h; activity change, negative = growth inhibition: at 46.2 µM (top of the series)
How it was run: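 Growth kinetics read by CellTiter-Glo luminescence after ≥48 hr at 37 °C. Cells: DT40 Tdp1-/- stably carrying human TDP1, 400 per well, compound exposure in the absence of CPT (DMSO vehicle).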
% is set by controls: 0 for no effect and ±100 for the full control effect; potency is the fitted concentration of half-maximal effect; tags give direction and shape of the fitted curve.

Row | SMILES | activity change, negative = growth inhibition | Potency
1 | S=c1[nH]nc(-c2ccccc2)n1C1C=CCCC1 (stereo not given) | inconclusive: -3.64% [inhibitor] | 
2 | CCC1(c2ccccc2)NC(=O)N(CC(=O)Nc2ccccc2C(=O)NC2CCCC2)C1=O (stereo not given) |  | inconclusive: 29.1 µM [inhibitor, single point]
3 | O=C(NCc1ccco1)C1CC(c2ccc(F)cc2)=NO1 (stereo not given) |  | inactive
4 | CN(CC(=O)Nc1cccc(F)c1)C(=O)c1cc([N+](=O)[O-])ccc1N1CCCCC1 |  | active: 29.1 µM
5 | O=C(COC(=O)c1cccc2c1C(=O)c1ccccc1C2=O)NC1CCCCC1 |  | inconclusive: 20.6 µM [inhibitor, single point]
6 | Cc1cccc(NCC(=O)N/N=C/c2cccc(Br)c2)c1 |  | inconclusive: 29.1 µM [inhibitor, single point]
7 | COc1cc(-c2noc(C)c2C#Cc2nccn2C)cc(OC)c1OC |  | active: 12.6 µM
8 | O=C(/C=C/c1ccccc1Cl)N(Cc1ccc(Cl)cc1)C1CCS(=O)(=O)C1 (stereo not given) |  | inconclusive: 29.1 µM [inhibitor, single point]
9 | COc1ccc(NC(=O)c2oc3ccccc3c2C)cn1 |  | inactive
10 | Cc1cc(C)n(CC(O)Cn2c3ccccc3c3ccccc32)c(=O)n1 (stereo not given) | inconclusive: -35.6% [inhibitor] | 
11 | Cc1nnc(-c2cccc(Br)c2)c2cn(-c3ccc(Br)cc3)nc12 |  | active: 14.6 µM
12 | N#Cc1ccc(CN2CCC3(CC2)CCN(C(=O)c2csnn2)CC3)cc1 |  | inconclusive: 29.1 µM [inhibitor, single point]
13 | CN1CCN(C2Cc3ccccc3Sc3cc(C(F)(F)F)ccc32)CC1 (stereo not given) |  | active: 16.4 µM
14 | Cc1ccc(NC(=O)c2ccccc2OCC(=O)Nc2ccccc2F)cc1S(=O)(=O)N(C)C |  | active: 20.6 µM
15 | O=C(NCc1ccco1)C(c1ccccc1F)N(CC1CCCO1)C(=O)Cn1nnc2ccccc21 (stereo not given) |  | inconclusive: 8.2 µM [inhibitor, partial curve]
16 | Cc1cc(C(=O)CSc2nn(-c3ccccc3)c(=S)s2)c(C)n1Cc1ccco1 |  | inconclusive: 29.1 µM [inhibitor, single point]
17 | O=C(CSc1oc(-c2cccs2)nc1S(=O)(=O)c1ccc(F)cc1)NCC1CCCO1 (stereo not given) |  | inconclusive: 18.4 µM [inhibitor, single point]
18 | COc1ccc(C(=O)OCC(=O)NCCN2C(=O)CSC2=O)cc1[N+](=O)[O-] |  | inactive
19 | Cc1ccc(C(=O)N2CCN(c3ncccn3)CC2)c(C)c1 |  | inactive
20 | CCOC(=O)c1c(-c2ccc(-c3ccccc3)cc2)csc1NC(=O)CCC(=O)O |  | inactive
21 | COc1cc(-c2cc(NC=O)c3ncc(-c4cccc(C(F)(F)F)c4)n3c2)cc(OC)c1OC |  | active: 10.3 µM
22 | Cn1c(=O)c(C(=O)COc2ccc(F)cc2Cl)c(N)n(Cc2ccccc2)c1=O |  | inconclusive: 29.1 µM [inhibitor, single point]
23 | Cc1cccc(C)c1NC(=O)CNC(=O)CN1C(=O)NC2(CCc3ccccc32)C1=O (stereo not given) |  | inactive

Row | SMILES | activity change, negative = growth inhibition | Potency
24 | CCCCn1c(SCC(=O)N2CCOCC2)nc2c1c(=O)n(C)c(=O)n2C |  | inactive
25 | Cn1c(N2CCN(C(c3ccccc3)c3ccccc3)CC2)nc2c1c(=O)[nH]c(=O)n2C |  | active: 18.4 µM
26 | O=C(Nc1nc2ccccc2n1CCN1CCCCC1)c1ccco1 |  | inconclusive: 20.6 µM [inhibitor, single point]
27 | CN1CCN(C2=Cc3ccc(Cl)cc3Sc3ccc(F)cc32)CC1 |  | active: 20.6 µM
28 | COc1cc(Cl)c(CN2CCCC(CO)(Cc3ccccc3)C2)cc1OC (stereo not given) |  | inconclusive: 18.4 µM [inhibitor, single point]
29 | COc1ccc(-c2cc(=O)[nH]c(N3CCN(Cc4ccccc4)CC3)n2)cc1 |  | inconclusive: 23.1 µM [inhibitor, single point]
30 | CC(Oc1ccccc1Cl)C(=O)Nc1ccc(S(=O)(=O)N2CCN(C)CC2)cc1 (stereo not given) |  | inconclusive: 29.1 µM [inhibitor, single point]
31 | COc1cccc(-c2nc(N3CC(C)CC(C)C3)c3ccccc3n2)c1O (stereo not given) |  | inconclusive: 23.1 µM [inhibitor, single point]
32 | O=C(N/N=C/c1cc([N+](=O)[O-])ccc1Cl)c1cc(-c2ccccc2)nc2ccccc12 |  | inconclusive: 0.731 µM [inhibitor, full curve, poor fit]
33 | COc1ccc(NC(=O)COC(=O)c2ccc(-n3nc(C)cc3C)cc2)cc1OC |  | inconclusive: 9.2 µM [inhibitor, partial curve]
34 | CC1CCCCC1NC(=O)COCc1cc(-c2cccs2)on1 (stereo not given) |  | inconclusive: 29.1 µM [inhibitor, single point]
35 | COc1cc(NC(=O)c2nccnc2N)cc(C(=O)Nc2cccc(C(F)(F)F)c2)c1 |  | inconclusive: 11.6 µM [inhibitor, partial curve] and inconclusive: 29.1 µM [inhibitor, single point]
36 | COc1ccc(CCNC(=O)c2cc3c(=O)n4cccc(C)c4nc3n(Cc3ccco3)c2=N)cc1OC |  | active: 25.9 µM
37 | O=C(Cn1c(-c2cscn2)nc2ccccc21)Nc1ccccc1F |  | inconclusive: 35.5 µM [inhibitor, single point]
38 | CC1Cc2ccccc2N1S(=O)(=O)c1cccc(C(=O)NCC(c2ccco2)N2CCCC2)c1 (stereo not given) |  | inconclusive: 25.9 µM [inhibitor, single point]
39 | Cc1cc(C)nc(N/N=C/C2=C(N3CCOCC3)C(=C/c3ccccc3)/CC2)n1 |  | active: 11.6 µM
40 | CCC1=NN(C(=O)c2ccc(Br)cc2)C(O)(c2ccccc2)C1 (stereo not given) |  | active: 6.51 µM
41 | CN(C)c1ccc(C(CNS(=O)(=O)c2ccc3ccccc3c2)c2c[nH]c3ccccc23)cc1 (stereo not given) |  | inconclusive: 29.1 µM [inhibitor, single point]
42 | CCc1ccnc(NC(=O)Nc2ccc(OCc3ccccc3)cc2)c1 |  | inactive
43 | CN(C)c1ccc(CNC(=O)c2cccn2-c2nnc(N3CCCCC3)s2)cc1 |  | active: 16.4 µM
44 | O=[N+]([O-])c1ccccc1S(=O)(=O)Nc1ccc(S(=O)(=O)Nc2nccs2)cc1 |  | active: 16.4 µM
45 | CCc1ccc(/C=c2\s/c(=C\C(=O)C(C)(C)C)[nH]c2=O)cc1 |  | active: 23.1 µM
